Results published in PubChem BioAssay AID1346428 (National Center for Advancing Translational Sciences (NCATS), 2018).
The campaign covered roughly 48,000 compounds. About 1,200 (2.5%) were called active. Roughly 2% stayed inconclusive and do not appear here.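 The calls were made as follows: active = activation of at least 60% and not above a set upper limit (about 1 call in 100 departs from these limits); inconclusive = activation of 40% to 60%, or above that upper limit; inactive = activation under 40%.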 The list shows a part of the results.

Biological target: Probable G-protein coupled receptor 32 (Homo sapiens) (UniProt O75388)
Assay: qHTS for Agonists of Human Resolvin D1 Receptor DRV1; also: 0% is about no effect
Details: CHO-K1 GPR32 beta-arrestin PathHunter luminescence, 90 min; at 76.9 µM; hits give high values; zero percent set by DMSO-only wells
Procedure, shortened: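 Using DMSO wells as EC0, agonist-induced signal was taken as chemiluminescence from beta-Gal reconstituted upon beta-arrestin recruitment to GPR32 in CHO-K1 cells after 90 min compound treatment.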

UniProt O75388, sequence (O75388 whole entry, looked up): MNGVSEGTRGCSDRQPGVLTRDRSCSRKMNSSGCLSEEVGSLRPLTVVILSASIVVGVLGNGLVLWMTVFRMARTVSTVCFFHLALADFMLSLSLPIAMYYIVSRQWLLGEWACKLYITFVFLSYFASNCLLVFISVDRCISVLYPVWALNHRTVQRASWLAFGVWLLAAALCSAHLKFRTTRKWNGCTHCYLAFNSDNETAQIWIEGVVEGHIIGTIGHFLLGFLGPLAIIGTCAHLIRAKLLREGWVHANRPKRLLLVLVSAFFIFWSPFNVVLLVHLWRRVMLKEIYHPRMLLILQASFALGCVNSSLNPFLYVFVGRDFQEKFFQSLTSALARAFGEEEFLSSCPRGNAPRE

activation, inactive:
Cc1cccc(NC(=O)CCCn2c(C)c3cnn(-c4ccccc4)c(=O)c3c2C)c1C -21.7%
Cc1ccccc1-n1c(SCC(=O)Nc2ccc(Cl)cc2F)nnc1-c1cc2occc2n1C -18.3%
Cc1ccc(CN2CCc3nc(N4CCN(c5ncccn5)CC4)ncc3C2)cc1 -30.4%
COc1ccc(C2=CC(c3ccc(F)cc3)n3ncc(C(=O)Nc4ccc(C)cc4)c3N2)cc1 (stereo not drawn) -0.925%
Cc1ccc(C)n1-c1nnc(N2CCCC(C(=O)NCc3ccc(Cl)cc3)C2)s1 (stereo not drawn) -25.5%
Cc1ccc(OCC(=O)Nc2ccc(S(=O)(=O)Nc3cc(C)nc(C)n3)cc2)c(Br)c1 44.7%
CCOc1ccccc1CNS(=O)(=O)c1ccc2c(c1)CCCN2C(C)=O 9.01%
O=C(Cn1ccn(-c2ccc(F)c(F)c2)c(=O)c1=O)Nc1ccccc1F -11.1%
Cc1ccc(-c2nc3cc(C(C)C)ccc3o2)cc1NC(=O)c1cc2ccccc2o1 -11%
Cc1ccc(N(CC(=O)NCCc2ccc(Cl)cc2)S(=O)(=O)N(C)C)cc1 -3.26%
O=C(CCSc1nc(-c2ccco2)cc(C(F)(F)F)n1)Nc1cccc(O)c1 34.9%
O=C(Nc1ccc2oc(-c3cccnc3)nc2c1)c1cccc(Br)c1 -1.94%
COc1cccc(NC(=O)CSc2nc3c(oc4ccccc43)c(=O)n2Cc2ccco2)c1 -15.9%
COc1cc(-c2noc(CN3CCN(c4ccccc4)CC3)n2)cc(OC)c1OC 12%
CC(C)CCNC(=O)CCCN1C(=O)c2ccccc2Sc2ncccc21 -16.6%
Cc1cn2c(=O)cc(COC(=O)c3cccc(NC(=O)COc4ccccc4Cl)c3)nc2s1 -15.3%
COc1cc(OC)cc(C(=O)Oc2c(Sc3ccccc3)c(C)nn2C(C)(C)C)c1 -10.8%
CCc1ccc(C2c3c(-c4ccccc4O)n[nH]c3C(=O)N2Cc2ccncc2)cc1 (stereo not drawn) -2.24%
Cc1cccc(NC(=O)C(=O)NCC(c2ccc3c(c2)OCO3)N2CCOCC2)c1C (stereo not drawn) -8.69%
CCOC(=O)c1ccccc1NC(=O)N1CCc2c(sc(C)c2CC)C1c1ccccc1 (stereo not drawn) -7.07%
COc1ccccc1-c1nc2c(c(SCc3cccc(Cl)c3)n1)Cc1c(CO)cnc(C)c1O2 7.85%
O=C(Nc1cccs1)Nc1cc(C(F)(F)F)ccc1Cl 10.6%
Cc1ccc(Cl)cc1N1CCN(C(=O)c2cnc(N3CCOCC3)c3ccccc23)CC1 -25%
